Reference: PubChem BioAssay AID1745853 (National Center for Advancing Translational Sciences (NCATS), 2022)
The other results are listed elsewhere or left out. Shown are side measurements of this screen, not its main read-out; they come without a call.

Columns and labels:
Experiment in all cases: Primary Screen for Target Class Profiling of Small Molecule Inhibitors of Methyltransferases
[1] = target: Glycine N-methyltransferase (Homo sapiens) (UniProt Q14749); details: purified enzyme, MTase-Glo SAH luminescence; measured here: GNMT inhibition; at 40 µM; stronger effect = lower value
Procedure, shortened: (§1)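 Each enzyme was assayed with SAM and its substrate. SAH formation detected by MTase-Glo luminescence; single-point 40 uM screen[…].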

[2] = target: Guanidinoacetate N-methyltransferase (Homo sapiens) (UniProt Q14353); details: purified enzyme, MTase-Glo SAH luminescence; measured here: GAMT inhibition; at 40 µM; stronger effect = lower value
Procedure, shortened: as §1

[3] = target: Histamine N-methyltransferase (Homo sapiens) (UniProt P50135); details: purified enzyme, MTase-Glo SAH luminescence; measured here: HNMT inhibition; at 40 µM; stronger effect = lower value
Procedure, shortened: as §1

[4] = target: Nicotinamide N-methyltransferase (Homo sapiens) (UniProt P40261); details: purified enzyme, MTase-Glo SAH luminescence; measured here: NNMT inhibition; at 40 µM; stronger effect = lower value
Procedure, shortened: as §1

[5] = target: Phenylethanolamine N-methyltransferase (Homo sapiens) (UniProt P11086); details: purified enzyme, MTase-Glo SAH luminescence; measured here: PNMT inhibition; at 40 µM; stronger effect = lower value
Procedure, shortened: as §1
% is set by controls: 0 for no effect and ±100 for the full control effect.

**Q.** Which results are given for `CC1CCC(NC(=O)C2(C)Cn3c(ccc3-c3ccccc3)C(=O)N2Cc2ccccc2Cl)CC1` (stereo not given)?
**A.** activity change, negative = inhibition [1]: 3.35%; activity change, negative = inhibition [2]: 0%; activity change, negative = inhibition [3]: 2.53%; activity change, negative = inhibition [4]: -0.668%; activity change, negative = inhibition [5]: 0.366%

**Q.** With `CC12CC34C=CC(=O)C(C)(CCC(=O)O)C3C(CC1C4)O2` (stereo not given) as the compound, how does the activity change, negative = inhibition [1] read?
**A.** Its activity change, negative = inhibition is 0%.

**Q.** And the activity change, negative = inhibition [2]?
**A.** Its activity change, negative = inhibition is 6.07%.

**Q.** And the activity change, negative = inhibition [3]?
**A.** Its activity change, negative = inhibition is 12.4%.

**Q.** What about the activity change, negative = inhibition [4] of the same compound?
**A.** Its activity change, negative = inhibition is -7.12%.

**Q.** What about the activity change, negative = inhibition [5] of the same compound?
**A.** Its activity change, negative = inhibition is 4.84%.

**Q.** Which activity change, negative = inhibition [1] does the source give for `CNC(=O)C1(N2CCC[C@H]2C(=O)N(C)CCN(C)C)CCC1` here?
**A.** The activity change, negative = inhibition was -0.32%.

**Q.** What about the activity change, negative = inhibition [2] of the same compound?
**A.** The activity change, negative = inhibition was 2.11%.

**Q.** And the activity change, negative = inhibition [3]?
**A.** The activity change, negative = inhibition was 0.597%.

**Q.** What about the activity change, negative = inhibition [4] of the same compound?
**A.** Its activity change, negative = inhibition is -7.51%.

**Q.** What about the activity change, negative = inhibition [5] of the same compound?
**A.** Its activity change, negative = inhibition is 13%.

**Q.** How did the activity change, negative = inhibition [1] turn out when `Cc1cnc(Nc2cccc(CN3CCOCC3)c2)nc1Nc1cccc(S(=O)(=O)NC(C)(C)C)c1` was run?
**A.** Its activity change, negative = inhibition is -6.43%.

**Q.** What about the activity change, negative = inhibition [2] of the same compound?
**A.** Its activity change, negative = inhibition is -10.5%.

**Q.** And the activity change, negative = inhibition [3]?
**A.** Its activity change, negative = inhibition is -13.4%.

**Q.** And the activity change, negative = inhibition [4]?
**A.** The activity change, negative = inhibition was -21.7%.

**Q.** What about the activity change, negative = inhibition [5] of the same compound?
**A.** Its activity change, negative = inhibition is -16.6%.

**Q.** What does the source list for `Cc1ccc(-c2nc3cnccn3c2NCCC(=O)O)cc1`?
**A.** activity change, negative = inhibition [1]: -7.46%; activity change, negative = inhibition [2]: -5.5%; activity change, negative = inhibition [3]: -4.02%; activity change, negative = inhibition [4]: -10.2%; activity change, negative = inhibition [5]: -9.92%

**Q.** What does the source list for `Cc1ccc(S(=O)(=O)c2nnn3c2nc(NC2CC2)c2cc(Cl)ccc23)cc1C`?
**A.** activity change, negative = inhibition [1]: -8.95%; activity change, negative = inhibition [2]: -1.41%; activity change, negative = inhibition [3]: -4.29%; activity change, negative = inhibition [4]: -8.22%; activity change, negative = inhibition [5]: -11.5%

**Q.** With `O=C(O)c1ccc(-c2nc3ccncc3[nH]2)cc1` as the compound, how does the activity change, negative = inhibition [1] read?
**A.** Its activity change, negative = inhibition is -28%.

**Q.** And the activity change, negative = inhibition [2]?
**A.** Its activity change, negative = inhibition is -28.6%.

**Q.** And the activity change, negative = inhibition [3]?
**A.** The activity change, negative = inhibition was -23.6%.

**Q.** And the activity change, negative = inhibition [4]?
**A.** Its activity change, negative = inhibition is -36.2%.

**Q.** What about the activity change, negative = inhibition [5] of the same compound?
**A.** Its activity change, negative = inhibition is -36.5%.

**Q.** What does the source list for `CC(C)CC(=O)OC[C@H]1O[C@@](COC(=O)CC(C)C)(O[C@H]2O[C@H](CO)[C@@H](O)[C@H](O)[C@H]2O)[C@@H](OC(=O)CC(C)C)[C@@H]1OC(=O)CC(C)C`?
**A.** activity change, negative = inhibition [1]: 1.59%; activity change, negative = inhibition [2]: 15.3%; activity change, negative = inhibition [3]: 7.43%; activity change, negative = inhibition [4]: -0.235%; activity change, negative = inhibition [5]: 9.17%

**Q.** `COc1ccc(CNC(=O)C2(C)Cn3cnc(C(=O)Nc4cccc5c4CCCC5)c3C(=O)N2C2CC2)cc1` (stereo not given) was tested. Which activity change, negative = inhibition [1] did it give?
**A.** The activity change, negative = inhibition was -0.432%.

**Q.** What about the activity change, negative = inhibition [2] of the same compound?
**A.** The activity change, negative = inhibition was 4.62%.

**Q.** And the activity change, negative = inhibition [3]?
**A.** The activity change, negative = inhibition was -1.22%.

**Q.** And the activity change, negative = inhibition [4]?
**A.** Its activity change, negative = inhibition is -5.74%.

**Q.** And the activity change, negative = inhibition [5]?
**A.** Its activity change, negative = inhibition is 0.025%.

**Q.** What does the source list for `CCOC(=O)c1cc2n(n1)CC(C)(C(=O)NC1CCCCC1)N(c1ccc(F)cc1)C2=O` (stereo not given)?
**A.** activity change, negative = inhibition [1]: -4.51%; activity change, negative = inhibition [2]: 0.158%; activity change, negative = inhibition [3]: -10.2%; activity change, negative = inhibition [4]: -3.02%; activity change, negative = inhibition [5]: -1.18%

**Q.** What does the source list for `Cc1noc(-c2ccn3c(CNC(=O)COc4ccccc4)nnc3c2)n1`?
**A.** activity change, negative = inhibition [1]: -4.12%; activity change, negative = inhibition [2]: -1.54%; activity change, negative = inhibition [3]: -1.6%; activity change, negative = inhibition [4]: 0.793%; activity change, negative = inhibition [5]: -1.55%

**Q.** `O=C(CN1CC2CC(C1)[C@H]1CCCC(=O)N1C2)N1CCCCC1` (stereo not given in full) was tested. Which activity change, negative = inhibition [1] did it give?
**A.** Its activity change, negative = inhibition is -5.28%.

**Q.** What about the activity change, negative = inhibition [2] of the same compound?
**A.** Its activity change, negative = inhibition is -5.97%.

**Q.** What about the activity change, negative = inhibition [3] of the same compound?
**A.** The activity change, negative = inhibition was -4.5%.

**Q.** And the activity change, negative = inhibition [4]?
**A.** The activity change, negative = inhibition was -6.82%.

**Q.** What about the activity change, negative = inhibition [5] of the same compound?
**A.** Its activity change, negative = inhibition is -12.3%.

**Q.** What does the source list for `COc1ccc(NC(=O)CN(C)S(=O)(=O)c2ccc3[nH]c4c(c3c2)CCCC4)c(OC)c1`?
**A.** activity change, negative = inhibition [1]: -1.24%; activity change, negative = inhibition [2]: 4.25%; activity change, negative = inhibition [3]: -5.61%; activity change, negative = inhibition [4]: -5.2%; activity change, negative = inhibition [5]: -4.71%

**Q.** With `COc1ccc(-c2nc3c(C)cccc3cc2CN2CC[C@@H](O)C2)cc1` as the compound, how does the activity change, negative = inhibition [1] read?
**A.** The activity change, negative = inhibition was -13.9%.

**Q.** And the activity change, negative = inhibition [2]?
**A.** Its activity change, negative = inhibition is -5.79%.

**Q.** And the activity change, negative = inhibition [3]?
**A.** The activity change, negative = inhibition was -16.5%.

**Q.** What about the activity change, negative = inhibition [4] of the same compound?
**A.** Its activity change, negative = inhibition is -7.79%.

**Q.** And the activity change, negative = inhibition [5]?
**A.** Its activity change, negative = inhibition is 4.55%.

**Q.** With `CN1C(=O)c2cc(C(=O)NCc3ccc(Cl)cc3)nn2CC1(C)C(=O)NC1CCCC1` (stereo not given) as the compound, how does the activity change, negative = inhibition [1] read?
**A.** Its activity change, negative = inhibition is 6.22%.

**Q.** And the activity change, negative = inhibition [2]?
**A.** The activity change, negative = inhibition was 0.568%.

**Q.** What about the activity change, negative = inhibition [3] of the same compound?
**A.** The activity change, negative = inhibition was 2.71%.

**Q.** What about the activity change, negative = inhibition [4] of the same compound?
**A.** The activity change, negative = inhibition was 8.09%.

**Q.** And the activity change, negative = inhibition [5]?
**A.** The activity change, negative = inhibition was 3.47%.

**Q.** For `Brc1cccc(-c2nnn3c2nc(NCc2ccc4c(c2)OCO4)c2ccccc23)c1`, which activity change, negative = inhibition [1] is on record?
**A.** Its activity change, negative = inhibition is 2.18%.

**Q.** What about the activity change, negative = inhibition [2] of the same compound?
**A.** The activity change, negative = inhibition was 0%.

**Q.** What about the activity change, negative = inhibition [3] of the same compound?
**A.** Its activity change, negative = inhibition is 5.63%.

**Q.** What about the activity change, negative = inhibition [4] of the same compound?
**A.** Its activity change, negative = inhibition is -5.5%.

**Q.** What about the activity change, negative = inhibition [5] of the same compound?
**A.** The activity change, negative = inhibition was -2.38%.

**Q.** With `CCc1cc2c(cc3n2CC(C)(C(=O)NC2CCCCC2)N(c2cc(Cl)ccc2C)C3=O)s1` (stereo not given) as the compound, how does the activity change, negative = inhibition [1] read?
**A.** The activity change, negative = inhibition was -1.62%.

**Q.** What about the activity change, negative = inhibition [2] of the same compound?
**A.** Its activity change, negative = inhibition is 1.65%.

**Q.** And the activity change, negative = inhibition [3]?
**A.** The activity change, negative = inhibition was -1.7%.

**Q.** What about the activity change, negative = inhibition [4] of the same compound?
**A.** The activity change, negative = inhibition was 1.8%.

**Q.** What about the activity change, negative = inhibition [5] of the same compound?
**A.** The activity change, negative = inhibition was -2.73%.

**Q.** What does the source list for `O=C(NCC1(COc2ccc(C(F)(F)F)cn2)C[C@@H](O)[C@@H](O)C1)c1cnccn1` (stereo not given in full)?
**A.** activity change, negative = inhibition [1]: -1.64%; activity change, negative = inhibition [2]: -0.265%; activity change, negative = inhibition [3]: 0.382%; activity change, negative = inhibition [4]: -1.86%; activity change, negative = inhibition [5]: 7.79%

**Q.** `CC(=O)Nc1ccc(N2C(=O)c3ccc(-c4ccco4)n3CC2(C)C(=O)NCc2ccc(Cl)cc2)cc1` (stereo not given) was tested. Which activity change, negative = inhibition [1] did it give?
**A.** Its activity change, negative = inhibition is -9.71%.

**Q.** What about the activity change, negative = inhibition [2] of the same compound?
**A.** Its activity change, negative = inhibition is 0%.

**Q.** What about the activity change, negative = inhibition [3] of the same compound?
**A.** Its activity change, negative = inhibition is 5.71%.

**Q.** And the activity change, negative = inhibition [4]?
**A.** Its activity change, negative = inhibition is 1.19%.

**Q.** And the activity change, negative = inhibition [5]?
**A.** The activity change, negative = inhibition was -0.309%.
